Source: the supplement of paper PMC3334620
The full ranking holds about 33,000 sequences; the median of “E-score (-0.5 to 0.5)” is about -0.056, and the highest 2% start at about 0.38. Some of the results follow.

biological target: Stb4 (UniProt P50104); assay: PBM E-score (8-mer binding enrichment) (E-score (-0.5 to 0.5)); higher = stronger / more preferred TF binding; most listed sequences are background and not binding sites; details: protein concentration: 200 nM; construct: GST-DNA-binding domain
Method in brief: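 GST-tagged yeast TFs (full-length or DNA-binding domain) were made by PURExpress in vitro transcription/translation and applied at about 100-200 nM to universal all-10-mer Agilent arrays. The arrays were made double-stranded by primer extension, on fresh or once-stripped slides. Bound protein was detected with fluorescent anti-GST, and scans were normalised with masliner. Each ungapped eight-base word, pooled with its reverse complement, received an E-score (modified Wilcoxon-Mann-Whitney statistic) from the Universal PBM Analysis Suite.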

| Sequence | PBM E-score |
| --- | --- |
| AACTCATT | -0.022 |
| CATGCATG | -0.305 |
| AGTGGCCA | -0.252 |
| AGTACCGG | 0.148 |
| AGAATACC | -0.0418 |
| CTAAGTAG | -0.288 |
| GAGGTCGC | 0.00721 |
| CGAGACTC | 0.176 |
| GACCGGGC | 0.0885 |
| TAACCCTA | -0.225 |
| GCGTAGCA | -0.105 |
| ACCGCCGT | 0.0269 |
| GCTCCCCA | -0.311 |
| CTTGGGCA | -0.0924 |
| ATACGTAT | -0.123 |
| AACGATTA | -0.0555 |
| ATCGGCGA | 0.226 |
| ATAGATTC | -0.0305 |
| ACCCTGCA | -0.0213 |
| ATGGCACG | -0.00398 |
| CAACATGG | -0.145 |
| GGGACGTA | 0.0138 |
| AAAAGTGT | -0.256 |
| AATTACCA | 0.0104 |
| GAATCGAC | 0.157 |

| Sequence | PBM E-score |
| --- | --- |
| CTAACCTA | -0.033 |
| GAGACTGA | -0.0651 |
| CGCTTACA | -0.127 |
| GCCCATAA | 0.0152 |
| CTGTAGCC | -0.0212 |
| TGTAGCAA | 0.169 |
| GCTCACCA | -0.267 |
| GGGCAGGA | -0.0499 |
| AAGCTTCC | 0.161 |
| ATTATGTC | -0.123 |
| GGAGATCC | 0.115 |
| TTGCAAAA | -0.0544 |
| AATGTCTA | -0.202 |
| CACCGACC | 0.149 |
| AGACCGCA | -0.12 |
| ACTGCGAT | 0.0235 |
| AATGTTAA | 0.109 |
| CAAGCAAG | -0.146 |
| CATTTGGA | 0.0908 |
| AGAGTTCA | -0.313 |
| CGGGGGGA | 0.0522 |
| GACCCGTC | 0.143 |
| AACATATA | -0.0109 |
| AGGGCTGG | -0.147 |
| CTAAGTTC | 0.0377 |

| Sequence | PBM E-score |
| --- | --- |
| AAGGGTGC | -0.16 |
| TAGTCTCA | -0.111 |
| ACCCCACA | -0.123 |
| CATTTCCG | 0.421 |
| ACCCAGAG | -0.234 |
| CCCGCCAG | 0.0645 |
| CTACGACA | -0.162 |
| CGTTAGGC | -0.151 |
| CAAAAAGA | -0.0408 |
| AACCTACT | 0.013 |
| CTCGGAGC | 0.395 |
| AGCTCCAA | -0.303 |
| GGCCTCGA | 0.0129 |
| CCTGGCAA | -0.145 |
| GTCACTAA | -0.219 |
| ATTACCGC | 0.208 |
| TCAAGGGA | 0.0219 |
| AGGCGCGA | -0.104 |
| GCTTCCCC | -0.0394 |
| ATCAACCC | 0.185 |
| AATTCACA | -0.132 |
| CAACGTTA | 0.00874 |
| GACGGGGC | -0.138 |
| AATAAGCG | -0.155 |
| CCCGTAGC | 0.00168 |

| Sequence | PBM E-score |
| --- | --- |
| CTACACAC | -0.077 |
| CATGATTC | -0.131 |
| ACACAACC | -0.0108 |
| GTCAGAAA | -0.203 |
| AATAAAAC | -0.0373 |
| GGCAAGTA | 0.0793 |
| ATAATGGA | -0.0765 |
| CGTGCAGC | -0.0683 |
| ACCCATTC | -0.0756 |
| GGGGGCCA | 0.0783 |
| ATTACTAA | -0.126 |
| ACATGCTG | -0.285 |
| ATACTATG | -0.00557 |
| CGAAGTGC | 0.0604 |
| GTATTCCA | 0.00919 |
| TTACTAAA | -0.12 |
| CCTAGGCG | -0.217 |
| GTTTGAAA | -0.0579 |
| ACAATGTG | -0.195 |
| GCCACATA | -0.134 |
| CGCTTACC | 0.106 |
| ACATGCGT | -0.242 |
| CCTTAACG | 0.219 |
| CACCACCA | -0.0793 |
| AAATGCGG | 0.307 |

| Sequence | PBM E-score |
| --- | --- |
| GCGCATTA | 0.00939 |
| AGATCTTA | -0.23 |
| GTTACTCA | 0.0396 |
| CTTGCGCA | -0.168 |
| CGGGATGC | 0.235 |
| CGTGATGC | 0.0274 |
| CCGACGGC | 0.339 |
| CGACGGAC | 0.148 |
| CCATTGGA | -0.213 |
| GATGTGTA | 0.0612 |
| ATCAAGCG | -0.0847 |
| CATTTCGC | 0.00468 |
| CTTTGCGC | -0.114 |
| AAAATGAA | -0.103 |
| ATCATCTG | 0.135 |
| ACCATTTG | -0.0118 |
| AAGATTTC | 0.0611 |
| TCAGACCA | -0.213 |
| AGCTTGAA | -0.171 |
| GAACTAAA | 0.158 |
| CGTGTCAA | -0.235 |
| CAGTCCCG | 0.257 |
| GCGATTAA | 0.0514 |
| AGTAGCTG | -0.221 |
| AACTATAT | -0.0631 |

| Sequence | PBM E-score |
| --- | --- |
| GAGGCGTA | -0.0236 |
| CGTGCTAG | -0.16 |
| ATTTTACC | 0.238 |
| CGCTTCCA | -0.0326 |
| GTTTGGAA | -0.152 |
| ATAGGCGG | 0.186 |
| GGACAGAC | -0.0236 |
| CGCGACAC | -0.00733 |
| AGTGCGTA | -0.145 |
| ACCACGTA | -0.33 |
| GAAGGATC | 0.0415 |
| CGAGGAAG | 0.13 |
| CAATACCG | 0.134 |
| CGTGAGCA | -0.0397 |
| GACAGTGC | -0.0115 |
| ACTTCTCA | -0.289 |
| CCTTATGA | -0.155 |
| CCTTTCAG | -0.197 |
| GGAGCGCA | -0.065 |
| CAAGTTAC | 0.0131 |
| ATGTGGAA | -0.079 |
| GGAATAAC | 0.298 |
| CTGGTTAA | 0.0161 |
| CCTCTTAG | -0.0404 |
| CAACTGAG | -0.0761 |

| Sequence | PBM E-score |
| --- | --- |
| CGGTCAAC | 0.172 |
| GACAACCA | -0.0624 |
| ACTTCAGA | 0.00297 |
| TAGCGCCA | -0.319 |
| AGACGCCG | 0.14 |
| GAAGCCGA | 0.401 |
| TAGGGATA | -0.1 |
| GGCATCGA | -0.166 |
| CGGCCCAC | 0.126 |
| CCCTCCGC | 0.0931 |
| AATACACA | -0.144 |
| GAGAAACC | 0.107 |
| ACCTATGG | -0.0696 |
| CTATCCCA | -0.135 |
| AGACGAGG | -0.152 |
| CCTCCTTA | -0.227 |
| AGTAATTA | -0.25 |
| ATAACGCC | 0.0163 |
| ACTGTTCG | 0.0494 |
| AACTCTTC | -0.165 |
| TAAACGTA | -0.249 |
| ATCGCGTA | -0.195 |
